In all, about 190,000 compounds went through this assay and about 520 (0.27%) were called active. Inconclusive means that the source gave no clear call. Such entries were picked first, then a sample of the others.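 How the source made its calls: active means GTP binding activity at least 20 points away from the 100% control level, either lower or higher; inconclusive means compound flagged as likely green fluorescent, judged across all proteins; inactive means the rest.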
The compounds below were run against Ras-related C3 botulinum toxin substrate 1 (Homo sapiens) (UniProt P63000) (assay: wildtype Rac1 GTP binding modulators, primary screen, biochemical, GST-Rac1 beads, flow cytometry, multiplex (AID 757)). Conditions: fluorescent GTP binding, at 10 µM, actives lie on both sides, 0 = cold GTP competed, 100 = untreated.

Compound	GTP binding activity (% of control)
Cc1ccc(CN2C(=O)N/C(=C/c3ccc4c(c3)n(C)c(=O)n4C)C2=O)cc1	inconclusive: 97%
O=C(CC(c1ccccc1)c1ccccc1O)NCCN1CCOCC1 (stereo unspecified)	inconclusive: 105%
O=S(=O)(NCc1ccc2c(c1)OCO2)c1cccc(S(=O)(=O)N2CCOCC2)c1	inactive: 108%
Cc1ncc(CN2CCC(CO)(Cc3ccccc3)CC2)s1	inactive: 98%
COc1cc(C=O)ccc1OCc1cccc(Br)c1	inconclusive: 102%
Cn1ncc2c(N3CCN(c4ccc(Cl)c(Cl)c4)CC3)ncnc21	inactive: 101%
COc1ccc(OCc2nc(N)nc(Nc3ccc(C)cc3)n2)cc1	inconclusive: 104%
Cn1c(=NC(=O)c2ccc3c(c2)OCCO3)sc2cc(S(C)(=O)=O)ccc21	inactive: 100%
O=S(=O)(c1ccc2c(c1)N(Cc1ccc(Cl)cc1)C1CCCN21)N1CCOCC1 (stereo unspecified)	inactive: 97%
O=C(C(Cc1ccccc1)N1C(=O)C2C3C=CC(C3)C2C1=O)N1CCCCCC1 (stereo unspecified)	inactive: 94%
Cc1[nH]c2ccccc2c1C(=O)COC(=O)Cn1c(C(F)(F)F)nc2ccccc21	inconclusive: 107%
Oc1ccccc1C=NC1CCCCC1N=Cc1ccccc1O (stereo unspecified)	inactive: 100%
c1ccc(OCc2nc(-c3cccs3)no2)cc1	inactive: 98%
COc1ccc(C(=O)N/N=c2\oc3ccccc3cc2C(N)=O)cc1	inconclusive: 77%
CN(C)/C=C(\C#N)C(N)=C(C#N)C#N	inconclusive: 83%
COc1cc2c(cc1NC(=O)CN1CCN(S(=O)(=O)c3ccc(F)cc3)CC1)oc1ccccc12	inconclusive: 103%
Cc1ccc(S(=O)(=O)CCC(=O)OC(C)C(=O)c2c(C)[nH]c3ccccc23)cc1 (stereo unspecified)	inactive: 107%
Cc1ccc(N=Nc2c(N)[nH]n3c(=O)cc(C)nc23)cc1	active: 75%
CC(C)Cn1cc(Cl)c(=O)n(CC(C)C)c1=O	inactive: 101%
O=C(Nc1c(F)cc(F)cc1Br)c1ccco1	inconclusive: 105%
Cc1cc(Oc2ccccc2)nc(SCC(=O)Nc2ccc(Cl)cc2Cl)n1	inconclusive: 104%
COc1cccc(/C=N/NC(=O)c2[nH]c(C)c(C(=O)N/N=C/c3cccc(OC)c3)c2C)c1	inconclusive: 91%
COCCCNC(=O)c1cc2c(-c3ccc(Cl)cc3)nn(C)c2s1	inconclusive: 88%

Compound	GTP binding activity (% of control)
Cc1ccc(/C=N/NC(=O)c2ccc(Cn3cc([N+](=O)[O-])cn3)o2)cc1	inactive: 99%
Cc1cc(C)nc(Nc2ncc(O)n2-c2ccc(C)c(C)c2)n1	inconclusive: 100%
O=S(=O)(c1ccc2nc(-c3ccco3)c(-c3ccco3)nc2c1)N1CCOCC1	inconclusive: 94%
COc1ccc(S(=O)(=O)N2CCC(C(=O)N3CCc4ccccc4C3)CC2)cc1C	inconclusive: 89%
O=S(=O)(/C=C/c1ccccc1)N1CCN(Cc2ccc3c(c2)OCO3)CC1	inconclusive: 94%
COc1cc(OC)c(S(=O)(=O)N2CCCCC2)cc1S(=O)(=O)N1CCCCC1	inconclusive: 104%
O=C(c1cccc(N2C(=O)C3C4C=CC(C4)C3C2=O)c1)N1CCCCCC1 (stereo unspecified)	inactive: 111%
CCOc1cc(/C=C2/NC(=O)N(CC(=O)Nc3cccc(C)c3)C2=O)ccc1OCC(N)=O	inconclusive: 95%
Cc1sc2c(c1C)c(=O)nc1n2Cc2ccccc2-1	inconclusive: 85%
CC(=O)c1ccc(OCC(O)CN2CCN(CCO)CC2)cc1 (stereo unspecified)	inactive: 101%
CCOc1ccccc1NC(=S)N1CCN(c2nc(-c3ccc(F)cc3)cs2)CC1	inactive: 107%
COc1ccc(Cn2nc(-c3ccccc3)c(N3CCCCC3)cc2=O)cc1	inconclusive: 92%
CC1CC(NS(=O)(=O)c2cccs2)CC(C)(C)C1 (stereo unspecified)	inconclusive: 102%
COc1cc(CC(=O)OCC(=O)Nc2cccc([N+](=O)[O-])c2)cc(OC)c1OC	inactive: 104%
COc1ccc(/C=N/NC(=O)OC(C)(C)C)cc1OC	inactive: 103%
Cc1ccccc1Nc1n[nH]c(C)c1[N+](=O)[O-]	inactive: 99%
CC(=O)Nc1ccc(NC(=O)COC(=O)c2ccco2)cc1	inconclusive: 92%
O=C(Nc1cccc(Cl)c1N1CCCC1)c1ccc(Br)o1	inconclusive: 106%
COc1cc2[nH]c(=S)nc(NC3CCCCCC3)c2cc1OC	active: 60%
COc1ccc(CCNc2c([N+](=O)[O-])c(=O)oc3ccccc23)cc1OC	inconclusive: 112%
CCSc1nnc(NC(=O)[C@@H](NC(=O)c2ccccc2F)C(C)C)s1	inconclusive: 136%
CCOc1ccccc1NC(=O)c1cc(Cl)ccc1NC(=O)c1ccco1	inconclusive: 104%
COc1ccc(CC(=O)Nc2cc(=O)n(C)c(=O)n2C)cc1	inconclusive: 107%

Compound	GTP binding activity (% of control)
COc1ccc(CN(C)C2CCCCC2)c(C)c1C	inconclusive: 105%
O=C1CC(c2ccc(F)cc2)Sc2ccccc2N1 (stereo unspecified)	active: 129% [activator]
O=C(NCC1OCCc2ccccc21)c1cc(COc2c(F)cccc2F)on1 (stereo unspecified)	inconclusive: 89%
COc1ccc(/C=N/OCC(=O)N=Nc2c(O)[nH]c3ccc(Br)cc23)cc1OC	inconclusive: 93%
O=C(/C=C/c1ccc(Cl)cc1Cl)c1cccnc1	inactive: 92%
Cc1cc(=O)[nH]c2c(N=Nc3ccc(O)cc3)c(N)nn12	active: 56%
COc1ccc2cc(/C=N/NC(=O)c3ccc(CN(c4cccc(Cl)c4Cl)S(C)(=O)=O)cc3)c(Cl)nc2c1	inactive: 98%
CC(=O)c1cc2c(cc1NC(=O)c1cccc(S(=O)(=O)N3CCN(C)CC3)c1)OCO2	active: 78%
O=c1nc2c(O)cccn2c2c1c(=O)[nH]c1ccccc12	active: 61%
COc1ccc(CNC(=O)CN(C)S(=O)(=O)c2ccc(Cl)cc2)cc1	inconclusive: 101%
COCCNC(=O)/C(C#N)=C/C=C/c1ccccc1[N+](=O)[O-]	inconclusive: 98%
C/C(=N\NC(=O)c1ccc([N+](=O)[O-])cc1Cl)c1ccccc1	inactive: 97%
CCc1c(O)nc(SCC(N)=O)n(-c2ccccc2F)c1=O	inconclusive: 105%
CCC(C)(C)NC(=O)CN(Cc1cccs1)C(=O)CCC(=O)Nc1nccs1	inconclusive: 101%
Cc1nc(N2CCN(c3ccccn3)CC2)c2c(C)c(C(=O)Nc3ccc(F)cc3F)sc2n1	inconclusive: 85%
CN(C)S(=O)(=O)c1cc(NC(=O)CN2CCN(c3ccccc3F)CC2)ccc1Cl	inactive: 99%
Cc1ccc(-c2nnc3c4ccccc4c(C)nn23)cc1S(=O)(=O)N1CCN(CCO)CC1	inactive: 88%
O=C(NCCN1CCCCCC1)C1CC(=O)N(CCc2ccccc2)C1 (stereo unspecified)	inactive: 94%
COc1cc(N2CCOCC2)ncn1	inconclusive: 103%
CN(C)c1cccc2c(/C=N/O)ccc(N(C)C)c12	inactive: 94%
NS(=O)(=O)c1ccc(N/N=C/c2ccccc2Br)cc1	inactive: 94%
Cc1ccc(S(=O)(=O)N2CCCCC2)cc1NC(=O)CSc1nnc(N)s1	inconclusive: 100%
Cc1nn(CC(=O)Nc2cc(S(=O)(=O)N(C)C)ccc2Cl)c(C)c1[N+](=O)[O-]	inconclusive: 106%

Compound	GTP binding activity (% of control)
CCOc1ccc(C(=O)NCc2ccco2)cc1	inconclusive: 115%
Cc1nc2sc(C(c3ccc(Cl)cc3)N3CCN(C(=O)c4ccco4)CC3)c(O)n2n1 (stereo unspecified)	inconclusive: 102%
O=C(O)/C=C\C(=O)Nc1cccc(C(=O)Nc2cccc(O)c2)c1	active: 76%
COc1cccc(OCCNC(=O)c2cc([N+](=O)[O-])cc([N+](=O)[O-])c2)c1	inconclusive: 90%
O=C(O)c1ccc(/C=N/NC(=O)c2cc(-c3ccc4c5c(cccc35)CC4)n[nH]2)cc1	active: 76%
COc1ccc(/C=N/Nc2cc(C)nc(-n3nc(C)cc3C)n2)c(OC)c1	inconclusive: 84%
CCN(CC)S(=O)(=O)c1cccc(NC(=O)c2ccc(C#N)cc2)c1	inactive: 98%
CCOC(=O)N1CCC2(CC1)C(C#N)=C(N)Oc1c2c(C)nn1-c1cccc(Cl)c1	inconclusive: 89%
CS(=O)(=O)N1CCC(C(=O)N2CCN(C(c3ccccc3)c3ccccc3)CC2)CC1	inactive: 100%
CC(C)Cn1c(N)c(C(=O)COC(=O)c2ccc3c(c2)OCCO3)c(=O)n(C)c1=O	inconclusive: 90%
Cn1c(=O)oc2cc(S(=O)(=O)NCCC(=O)NCCc3ccccc3)ccc21	inconclusive: 108%
C=CCOC(=O)C1=C[C@H](C2CCCCC2)[C@@H](CCCO)[C@H](OCC)O1	inactive: 95%
O=C(Nc1ccc(N2CCCCC2)cc1)c1ccc2ccccc2n1	inactive: 92%
Cc1ccc(OCC(=O)NC(C)c2ccccc2)c([N+](=O)[O-])n1 (stereo unspecified)	inactive: 98%
CCn1c(SCC(=O)N/N=C/c2ccc(C)o2)nnc1-c1ccc(C(C)(C)C)cc1	inconclusive: 104%
c1ccc(-n2c(SCC3CCCCO3)nnc2-c2cnccn2)cc1 (stereo unspecified)	inconclusive: 88%
CCOC(=O)c1sc(NC(=O)c2cc3ccccc3o2)nc1C	inconclusive: 97%
C=CCNc1cnn(CC(C)=O)c(=O)c1Br	inconclusive: 109%
Cc1cccc(/C=N/N(CCO)C2=NS(=O)(=O)c3ccccc32)c1	active: 68%
CCn1ncc(N(C)N)c(Cl)c1=O	inactive: 95%
COc1cc(OC)cc(C(=O)NNC(=S)Nc2ccc(S(N)(=O)=O)cc2)c1	inconclusive: 90%
O=C(c1ccco1)N1CCCN(Cc2nc(-c3cccs3)no2)CC1	inconclusive: 100%

— PubChem BioAssay AID757 (NMMLSC, 2007)
